“And” between values parts separate entries of the source, which are not always exact repeats. Equal entries are not always repeated. This list was built around the results that the source calls inconclusive (neither active nor inactive); the mix of calls is not that of the screen. For part of these data: Potencies of inconclusive entries are doubtful fits and often do not repeat. The source holds several records for some structures; these can differ, active in one and inactive in another. The source made the active and inactive calls. Unless noted, calls follow the shape of the dose curve; as a rule, active = well fitted curve in the direction sought with a large enough effect in the repeat runs; inconclusive = weak or mixed curves; inactive = no such curve, though single readings can be large; an effect the other way counts as inactive or inconclusive.
Experiments:
[1] = molecular target: Peroxisome proliferator-activated receptor gamma (Homo sapiens) (UniProt P37231); assay: qHTS assay to identify small molecule antagonists of the peroxisome proliferator-activated receptor gamma (PPARg) signaling pathway (AID 743191; calls by dose curve; also: nearly all actives have a fitted effect of over 30% in size; also: potency is read from the fitted curve at half-maximal effect; as to ratio activity, negative = inhibition: % is scaled to controls: 0 for no effect and ±100 for the full control effect); details: HEK293H PPARg-UAS-bla, beta-lactamase ratio, antagonist, 17 h
Sequence of UniProt P37231 (P37231 whole entry, looked up): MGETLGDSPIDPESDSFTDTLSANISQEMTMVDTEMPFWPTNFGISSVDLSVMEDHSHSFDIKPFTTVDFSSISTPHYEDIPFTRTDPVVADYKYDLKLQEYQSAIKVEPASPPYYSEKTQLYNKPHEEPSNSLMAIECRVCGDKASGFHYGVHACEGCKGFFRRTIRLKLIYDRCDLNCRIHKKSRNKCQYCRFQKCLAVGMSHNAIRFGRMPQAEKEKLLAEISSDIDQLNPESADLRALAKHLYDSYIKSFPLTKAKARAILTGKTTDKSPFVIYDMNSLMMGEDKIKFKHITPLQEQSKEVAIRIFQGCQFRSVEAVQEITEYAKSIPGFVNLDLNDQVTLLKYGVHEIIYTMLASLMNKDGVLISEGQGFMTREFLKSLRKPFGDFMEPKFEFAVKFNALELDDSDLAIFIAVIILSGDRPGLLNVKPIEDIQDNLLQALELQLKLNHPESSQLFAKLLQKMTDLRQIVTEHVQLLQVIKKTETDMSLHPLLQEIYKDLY
Procedure, shortened: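 Beta-lactamase reporter under UAS control in HEK293H PPARg-bla cells; compound treatment 17 h at 37C. Read-out: fluorescence intensity after 1 h room-temperature incubation with LiveBLAzer B/G FRET substrate.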

[2] = qHTS assay to identify small molecule agonists of the farnesoid-X-receptor (FXR) signaling pathway - cell viability counter screen (AID 743218); details: FXR-bla HEK293T viability, CellTiter-Glo luminescence, 16 h; viability change, negative = cytotoxic: at 62.6 µM (top of the series) unless noted; also: potency is read from the fitted curve at half-maximal effect; nearly all actives have a fitted effect of over 45% in size
Procedure, shortened: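 Cytotoxicity counter-screen run in parallel, same wells: FXR-UAS-bla HEK 293T cells dosed 16 h at 37 C, viability read by CellTiter-Glo luminescence after 30 min at room temperature.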

[3] = qHTS assay to identify small molecule antagonists of the peroxisome proliferator-activated receptor gamma (PPARg) signaling pathway - cell viability counter screen (AID 743194); details: PPARg-bla HEK293H viability, CellTiter-Glo luminescence, 17 h, co-treated with 50 nM rosiglitazone; activity change, negative = cytotoxicity: at 62.6 µM (top of the series) unless noted; also: potency is read from the fitted curve at half-maximal effect; nearly all actives have a fitted effect of over 55% in size
Procedure, shortened: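 Viability was measured as CellTiter-Glo luminescence in GeneBLAzer PPARg UAS-bla HEK293H cells. These cells had been exposed 17 h at 37 C to compounds together with rosiglitazone at 50 nM final, with the beta-lactamase readout taken in the same wells.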

[4] = qHTS assay to identify small molecule agonists of the peroxisome proliferator-activated receptor delta (PPARd) signaling pathway - cell viability counter screen (AID 743211); details: PPARd-bla HEK293H viability, CellTiter-Glo luminescence, 17 h; activity change, negative = cytotoxicity: at 62.6 µM (top of the series) unless noted; also: potency is read from the fitted curve at half-maximal effect; nearly all actives have a fitted effect of over 55% in size
Procedure, shortened: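 Viability was measured as CellTiter-Glo luminescence (30 min, room temperature) in the same wells as the beta-lactamase readout. GeneBLAzer PPARd UAS-bla HEK293H cells received compound after 5 h plating and were incubated 17 h at 37 C.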

[5] = qHTS assay for small molecule agonists of the antioxidant response element (ARE) signaling pathway (AID 743202; active = well fitted activation curve with a large enough effect in the signal ratio in the repeat runs, not every such curve was filed as active; inconclusive = weak or mixed curves, or effect the other way; inactive = no such curve, though single readings can be large or run the other way; the % refers to the signal ratio; also: potency is read from the fitted curve at half-maximal effect); details: HepG2 ARE-bla reporter, beta-lactamase FRET, 16 h; activation: at 73.3 µM (top of the series) unless noted
Procedure, shortened: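 An ARE-responsive beta-lactamase gene stably integrated in HepG2 cells serves as reporter. After 5 h plating and 16 h compound incubation at 37 C, fluorescence of the B/G FRET substrate was measured.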

[6] = qHTS assay for small molecule agonists of the antioxidant response element (ARE) signaling pathway - cell viability counter screen (AID 743203; calls by dose curve; also: nearly all actives have a fitted effect of over 55% in size; also: potency is read from the fitted curve at half-maximal effect); details: ARE-bla HepG2 viability, CellTiter-Glo luminescence, 16 h; viability change, negative = cytotoxic: at 73.3 µM (top of the series)
Procedure, shortened: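 Seeded at 2,000 cells/well, ARE-bla HepG2 cells were incubated 5 hrs before compound addition. After 16 hrs of treatment at 37C with 5% CO2, CellTiter-Glo reagent was added and luminescence read 30 min later.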

[7] = qHTS assay for small molecule activators of the heat shock response signaling pathway - cell viability counter screen (AID 743209); details: HSE-bla HeLa viability, CellTiter-Glo luminescence, 5 h; activity change, negative = cytotoxicity: at 62.6 µM (top of the series) unless noted; also: potency is read from the fitted curve at half-maximal effect; nearly all actives have a fitted effect of over 50% in size
Procedure, shortened: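 First, HSE-bla HeLa cells were seeded at 1500 cells/well and kept overnight at 37 C. Next, compounds were pinned in and incubated 5 h. After the FRET substrate step, CellTiter-Glo was added and luminescence read 30 min later.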

[8] = molecular target: Peroxisome proliferator-activated receptor delta (Homo sapiens) (UniProt Q03181); assay: qHTS assay to identify small molecule antagonists of the peroxisome proliferator-activated receptor delta (PPARd) signaling pathway (AID 743215; active = well fitted inhibition curve with a large enough effect in the signal ratio in the repeat runs, not every such curve was filed as active; inconclusive = weak or mixed curves, or effect the other way; inactive = no such curve, though single readings can be large or run the other way; the % refers to the signal ratio;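 also: cells stimulated with agonist L165041 at 300 nM final during compound exposure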; also: potency is read from the fitted curve at half-maximal effect; as to ratio activity, negative = inhibition: % is scaled to controls: 0 for no effect and ±100 for the full control effect); details: HEK293H PPARd-UAS-bla, beta-lactamase FRET ratio, antagonist, 17 h; ratio activity, negative = inhibition: at 62 µM (top of the series) unless noted
Sequence of UniProt Q03181 (Q03181 whole entry, looked up): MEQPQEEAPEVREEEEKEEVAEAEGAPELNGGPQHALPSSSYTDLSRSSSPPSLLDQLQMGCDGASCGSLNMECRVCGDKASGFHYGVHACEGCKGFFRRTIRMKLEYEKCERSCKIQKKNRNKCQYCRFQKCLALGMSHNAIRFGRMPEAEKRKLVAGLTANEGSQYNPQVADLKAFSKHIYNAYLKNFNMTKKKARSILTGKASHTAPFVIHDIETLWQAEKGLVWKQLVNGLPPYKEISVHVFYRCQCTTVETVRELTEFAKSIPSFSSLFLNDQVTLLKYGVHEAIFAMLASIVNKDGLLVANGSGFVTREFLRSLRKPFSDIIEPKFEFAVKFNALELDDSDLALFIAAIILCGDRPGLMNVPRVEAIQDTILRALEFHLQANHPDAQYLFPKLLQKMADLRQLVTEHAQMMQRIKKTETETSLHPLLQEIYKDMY
Procedure, shortened: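 Inhibition of L165041-driven (300 nM final) PPARd signaling is scored in HEK293H UAS-bla cells. Exposure lasts 17 h at 37 C; beta-lactamase activity is then read by FRET substrate fluorescence after 2 h at room temperature.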

[9] = qHTS assay to identify small molecule antagonists of the farnesoid-X-receptor (FXR) signaling pathway - cell viability counter screen (AID 743221; active = well fitted cell-killing curve with a large enough effect in the repeat runs, not every such curve was filed as active; inconclusive = weak or mixed curves, or effect the other way; inactive = no such curve, though single readings can be large or run the other way; also: potency is read from the fitted curve at half-maximal effect; nearly all actives have a fitted effect of over 50% in size); details: FXR-bla HEK293T viability, CellTiter-Glo luminescence, 16 h; activity change, negative = cytotoxicity: at 62.6 µM (top of the series) unless noted
Procedure, shortened: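 Cytotoxicity counter screen run in the FXR-bla reporter wells: HEK 293T cells exposed to compound with 50 uM (final) chenodeoxycholic acid for 16 h, 37 C, then viability measured by CellTiter-Glo luminescence after 30 min, room temperature.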

[10] = molecular target: Vitamin D3 receptor (Homo sapiens) (UniProt P11473); assay: qHTS assay to identify small molecule agonists of the vitamin D receptor (VDR) signaling pathway (AID 743222; calls by dose curve; also: potency is read from the fitted curve at half-maximal effect); details: HEK293T VDR-UAS-bla, beta-lactamase FRET ratio, 16 h; activation: at 63.5 µM (top of the series) unless noted
Sequence of UniProt P11473 (P11473 whole entry, looked up): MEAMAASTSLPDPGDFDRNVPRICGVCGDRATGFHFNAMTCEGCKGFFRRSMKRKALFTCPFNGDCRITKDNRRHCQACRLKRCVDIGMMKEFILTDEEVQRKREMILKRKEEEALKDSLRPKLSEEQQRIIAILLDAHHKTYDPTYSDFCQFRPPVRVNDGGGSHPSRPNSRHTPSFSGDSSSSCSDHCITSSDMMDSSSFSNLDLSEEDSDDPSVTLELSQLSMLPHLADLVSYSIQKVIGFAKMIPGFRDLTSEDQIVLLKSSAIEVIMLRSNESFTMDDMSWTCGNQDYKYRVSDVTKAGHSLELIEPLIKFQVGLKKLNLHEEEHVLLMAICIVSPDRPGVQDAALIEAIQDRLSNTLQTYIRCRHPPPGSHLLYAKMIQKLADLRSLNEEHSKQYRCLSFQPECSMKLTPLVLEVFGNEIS
Procedure, shortened: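 Quantitative HTS agonist-mode screen: compounds in DMSO were pin-transferred onto VDR-bla cells and incubated 16 h at 37C, 5% CO2. Reporter activity was detected with LiveBLAzer B/G FRET substrate after 2 h at room temperature.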

[11] = molecular target: Vitamin D3 receptor (Homo sapiens) (UniProt P11473); assay: qHTS assay to identify small molecule antagonists of the vitamin D receptor (VDR) signaling pathway (AID 743223; active = well fitted inhibition curve with a large enough effect in the signal ratio in the repeat runs, not every such curve was filed as active; inconclusive = weak or mixed curves, or effect the other way; inactive = no such curve, though single readings can be large or run the other way; the % refers to the signal ratio; also: potency is read from the fitted curve at half-maximal effect); details: VDR-UAS-bla HEK293T, beta-lactamase FRET ratio, 16 h; activity change, negative = inhibition: at 61 µM (top of the series) unless noted
Procedure, shortened: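 Antagonist mode: compound added to VDR-bla cells alongside agonist 1alpha,25-dihydroxyvitamin D3 (3 nM final), incubation 16 h at 37C. Read-out is LiveBLAzer FRET fluorescence, 2 h at room temperature.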

[12] = qHTS assay to identify small molecule antagonists of the peroxisome proliferator-activated receptor delta (PPARd) signaling pathway - cell viability counter screen (AID 743213); details: PPARd-bla HEK293H viability, CellTiter-Glo luminescence, 17 h; viability change, negative = cytotoxic: at 62 µM (top of the series) unless noted; also: nearly all actives have a fitted effect of over 50% in size; also: potency is read from the fitted curve at half-maximal effect; as to viability change, negative = cytotoxic: % is scaled to controls: 0 for no effect and ±100 for the full control effect
Procedure, shortened: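 PPARd-bla HEK293H cells were treated with compounds plus agonist L165041 (300 nM final) for 17 h at 37 C. Viability was then read in the same wells by CellTiter-Glo luminescence after 30 min at room temperature.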

[13] = molecular target: Bile acid receptor (Homo sapiens) (UniProt Q96RI1); assay: qHTS assay to identify small molecule antagonists of the farnesoid-X-receptor (FXR) signaling pathway (AID 743217; active = well fitted inhibition curve with a large enough effect in the signal ratio in the repeat runs, not every such curve was filed as active; inconclusive = weak or mixed curves, or effect the other way; inactive = no such curve, though single readings can be large or run the other way; the % refers to the signal ratio; also: % is scaled to controls: 0 for no effect and ±100 for the full control effect); details: HEK293T FXR-UAS-bla, beta-lactamase ratio, CDCA-stimulated, 16 h; activity change, negative = inhibition: at 62.6 µM (top of the series) unless noted
Sequence of UniProt Q96RI1 (Q96RI1 whole entry, looked up): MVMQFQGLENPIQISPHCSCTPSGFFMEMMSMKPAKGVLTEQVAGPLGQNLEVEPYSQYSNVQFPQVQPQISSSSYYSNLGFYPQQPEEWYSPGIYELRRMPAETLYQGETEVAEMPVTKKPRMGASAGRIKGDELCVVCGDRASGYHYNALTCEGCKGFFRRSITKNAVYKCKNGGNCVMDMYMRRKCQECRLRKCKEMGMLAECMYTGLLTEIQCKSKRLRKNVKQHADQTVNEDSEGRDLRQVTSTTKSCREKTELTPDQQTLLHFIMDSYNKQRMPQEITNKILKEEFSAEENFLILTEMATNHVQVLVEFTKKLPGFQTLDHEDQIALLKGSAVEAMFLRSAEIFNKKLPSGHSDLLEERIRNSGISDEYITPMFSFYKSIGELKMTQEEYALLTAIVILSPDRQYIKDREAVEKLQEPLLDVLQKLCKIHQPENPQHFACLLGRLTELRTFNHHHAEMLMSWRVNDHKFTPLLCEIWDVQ
Procedure, shortened: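 Antagonist mode against 50 uM (final) chenodeoxycholic acid stimulation in FXR-bla HEK 293T cells, 16 h at 37 °C. Inhibition detected as reduced beta-lactamase activity via LiveBLAzer B/G FRET fluorescence after 2 h at room temperature.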

[14] = qHTS assay for small molecule activators of the heat shock response signaling pathway (AID 743210; active = well fitted activation curve with a large enough effect in the signal ratio in the repeat runs, with a control signal flat, not every such curve was filed as active; inconclusive = weak or mixed curves; the % refers to the signal ratio; also: potency is read from the fitted curve at half-maximal effect); details: HeLa HSE-bla reporter, beta-lactamase ratio, 5 h; activation: at 62.6 µM (top of the series) unless noted
Procedure, shortened: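 In HSE-bla HeLa cells, 5 h compound incubation (37 C) precedes addition of LiveBLAzer B/G substrate; after 2.5 h at room temperature, fluorescence intensity indicates reporter induction.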

[15] = ratio activity, negative = inhibition: at 62.6 µM (top of the series) unless noted
Tags tell the direction and shape of the fitted curve or compound fluorescence and quenching.

CC1(C)S[C@@H]2[C@H](NC(=O)[C@H](N)c3ccccc3)C(=O)N2[C@H]1C(=O)O
inconclusive: ratio activity, negative = inhibition [1, 15] 2.76% and 2.52% | Potency [2] 1.38 µM [rising, full curve, poor fit]
inactive: ratio activity, negative = inhibition ([1]; at 62.6 µM (top of the series)) -0.656%

CC(N)=O
inconclusive: ratio activity, negative = inhibition [1, 15] -7.97% [at 232 µM] | Potency [3] 64.8 µM [rising, partial curve, poor fit] | Potency [4] 145 µM [rising, single point]

Nc1ccc(O)c([N+](=O)[O-])c1
inconclusive: Potency [1, 15] 61.6 µM [activator] | Potency [3] 0.0014 µM [rising, full curve, poor fit] | Potency [5] 8.63 µM [falling, partial curve, poor fit] | Potency [6] 172 nM [rising, full curve, poor fit] | Potency [7] 0.0969 µM [rising, full curve] | Potency [8] 24.3 µM [fluorescent] | Potency [2] 24.3 µM [rising, full curve, poor fit] | Potency [9] 54.9 µM [rising, partial curve, poor fit] | Potency [10] 61 µM [rising, partial curve, poor fit] | Potency [11] 0.0122 µM [activator, full curve, poor fit]

Cc1ccc(S(N)(=O)=O)cc1
inactive: Potency [1, 15]
inconclusive: Potency [3] 6.88 µM [rising, partial curve, poor fit] | Potency [4] 54.6 µM [cytotoxic, single point] | viability change, negative = cytotoxic [12] 9.63% [cytotoxic] | Potency [8] 8.66 µM [rising, partial curve] | ratio activity, negative = inhibition [8] 19% | activity change, negative = inhibition [13] 9.63% and 10.2% | Potency [11] 27.4 µM [fluorescent, partial curve, poor fit]

CCC(=O)O[C@H]1[C@H](O[C@@H]2[C@@H](C)[C@H](O[C@H]3C[C@@](C)(OC)[C@@H](O)[C@H](C)O3)[C@@H](C)C(=O)O[C@H](CC)[C@@](C)(O)[C@H](O)[C@@H](C)C(=O)[C@H](C)C[C@@]2(C)O)O[C@H](C)C[C@@H]1N(C)C
40.5 µM (active) and inactive: Potency [6]
inconclusive: Potency [1, 15] 36.4 µM [single point] and 29.8 µM [activator, partial curve, poor fit] | Potency [3] 36.4 µM [cytotoxic, single point] | Potency [5] 45.5 µM [single point] | Potency [7] 32.5 µM [cytotoxic, single point] | Potency [14] 36.4 µM [single point] | Potency [4] 28.9 µM [cytotoxic] | activation [10] 0.108% | Potency [11] 32.5 µM [rising, partial curve, poor fit] | activity change, negative = inhibition [11] 4.54%
active: Potency [12] 23 µM | Potency [2] 32.5 µM

Source: PubChem BioAssay (Tox21)
